# Laboratory results reported in PubChem BioAssay AID504832 (National Center for Advancing Translational Sciences (NCATS), 2011).
# In all, about 310,000 compounds went through this assay and about 18,000 (5.8%) were called active. Inconclusive means that the source gave no clear call. Such entries were picked first, then a sample of the others. Calls come from the whole dose curve; as a rule, active = well fitted inhibition curve with a large enough effect; inconclusive = small, poorly fitted or top-dose-only effect, or another doubt; inactive = no such curve, though single readings can be large or run the other way. No potency is given beside an inconclusive call; the fits are too rough.
# Assay: Primary qHTS for delayed death inhibitors of the malarial parasite plastid, 48 hour incubation
# Conditions: P. falciparum luciferase growth in erythrocytes; series mostly up to 28.7 µM; activity change, negative = inhibition: at the top concentration
# Procedure, shortened: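 Luminescence readout; reporter = integrated firefly luciferase in P. falciparum. RBC culture at 2% hematocrit, 0.1% parasitemia final, 37 C/5% CO2; decreased signal taken as growth inhibition.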
# % is set by controls: 0 for no effect and ±100 for the full control effect; potency is the fitted concentration of half-maximal effect; tags give direction and shape of the fitted curve.
SMILES,Potency,"activity change, negative = inhibition"
Cc1cccc(N2CC(C(=O)Nc3nnc(SCC(=O)NCC4CCCO4)s3)CC2=O)c1 (stereo unspecified),"inconclusive [inhibitor, single point]",
CN1CCN(c2ccc(NC(=O)c3cc(S(N)(=O)=O)ccc3N3CCOCC3)cc2)CC1,,inactive: 0.549%
CCCCCCn1cc(C(=O)O)c(=O)c2cc(F)c(N3CCCCC3)cc21,"inconclusive [inhibitor, partial curve, poor fit]",
COc1ccc(S(=O)(=O)N2CCCC2CNC(=O)C(=O)NCc2ccccc2)cc1 (stereo unspecified),"inconclusive [inhibitor, partial curve, poor fit]",
O=C(COC(=O)c1ccc2ccccc2c1O)NCC(F)(F)F,,inactive: 23.9%
CCOC(=O)C1C(=O)CC(C)(O)C(C(=O)OCC)C1c1ccc(Br)cc1 (stereo unspecified),"inconclusive [inhibitor, single point]",
Cc1ccc(CSc2nnc([C@@H]3CCCN3C(=O)OC(C)(C)C)o2)cc1,"inconclusive [inhibitor, partial curve, poor fit]",
O=C(c1ccc(CSc2nc3ccncc3[nH]2)cc1)N1CCCCCC1,,inactive: -28.5%
Cc1cc(NC(=S)N(CCCN2CCN(C)CC2)Cc2ccco2)ccc1Cl,"inconclusive [inhibitor, partial curve, poor fit]",
c1ccc(-c2nnc(-c3ccncc3)nc2-c2ccccc2)cc1,"inconclusive [inhibitor, single point]",
CC(C)c1ccc(S(=O)(=O)N2CCN(C(=O)n3ccnc3)CC2)cc1,"inconclusive [inhibitor, partial curve]",
Cn1c(SCC(=O)Nc2cccc(F)c2)nc2c(c1=O)SCC2,"inconclusive [inhibitor, full curve]",
Cc1c(C(=O)NCCSCc2ccccc2Cl)cccc1[N+](=O)[O-],"inconclusive [inhibitor, single point]",
CCN(c1ccccc1)S(=O)(=O)c1ccc(N2CCN(c3ccccc3O)CC2)nc1,active: 6.57 µM,
CCCN1C(=O)c2[nH]nc(-c3cc(Cl)c(C)cc3O)c2C1c1ccc(O)c(OC)c1 (stereo unspecified),"inconclusive [inhibitor, partial curve, poor fit]",
OC1CCCN(CC(O)COC(c2ccccc2)c2ccccc2)C1 (stereo unspecified),"inconclusive [inhibitor, single point]",
O=C(c1cc2sccc2n1Cc1ccc(F)cc1)N1CCCc2ccccc21,active: 9.28 µM,
CCc1cc(CNC(=O)c2ccc3nc(Cc4ccc(OC)c(OC)c4)oc3c2)on1,"inconclusive [inhibitor, single point]",
O=C(Nc1cccc(F)c1)C1CC(=O)N(c2ccc(Cl)cc2)C1 (stereo unspecified),"inconclusive [inhibitor, partial curve, poor fit]",
O=c1c2ccccc2c(C=Nc2ccccc2O)c(O)n1-c1nccs1,active: 13.1 µM,
CC(=O)OCCC(NS(=O)(=O)OCC(Cl)(Cl)Cl)c1ccccc1 (stereo unspecified),,inactive: 47.5%

SMILES,Potency,"activity change, negative = inhibition"
COc1ccc(Nc2nc3cc(C)ccc3cc2C#N)cc1,"inconclusive [inhibitor, single point]",
CCOC(=O)[C@@H]1[C@H]2COc3ccccc3[C@H]2N2C(=O)N(c3ccc(C)cc3)C(=O)[C@]12C,"inconclusive [inhibitor, full curve, poor fit]",
CCCCN(CCCC)S(=O)(=O)c1ccc(NC(=O)Cc2cccs2)cc1,"inconclusive [inhibitor, single point]",
CCN(CC)CCC/C(=N\O)C(O)(c1ccccc1)c1ccccc1,"inconclusive [inhibitor, single point]",
Cc1c(C(=O)N2CCCC2)oc2c1-c1nn(CC(=O)NCCCN3CCCCC3)cc1CC2,"inconclusive [inhibitor, single point]",
CCCCNC(=O)NNC(=O)c1ccco1,,inactive: 7.47%
CCOc1ccc(C(CC(=O)O)NC(=O)COc2ccc3ccccc3c2)cc1OC (stereo unspecified),,inactive: -5.98%
COc1ccc(CNC(=S)N2CCN(S(=O)(=O)c3cccc(F)c3)CC2)cc1,"inconclusive [inhibitor, single point]",
C=CCOC(=O)C1=C(C)N=C2SCCC(=O)N2C1c1ccc(OC(=O)c2ccco2)cc1 (stereo unspecified),"inconclusive [inhibitor, single point]",
Cc1c(C)c2c(OCC(=O)N3CCC(O)CC3)cc3c(c2oc1=O)CCC(C)(C)O3,active: 13.1 µM,
CN(CC(=O)Nc1cccc(F)c1)C(=O)CCC1CCCCC1,"inconclusive [inhibitor, single point]",
S=C(Nc1ccccc1)Nc1nc2ccccc2n1CCOc1ccc(Br)cc1,active: 3.29 µM,
C#CCOCCOCCOCCNc1nc(N2CCN(C(=O)CCCCCCCCCCNC(=O)[C@@H](CCSC)n3cc(CCO)nn3)CC2)nc(N2CCN(C(=O)CCCCCCCCCCNC(=O)[C@H](CCC(=O)O)n3cc(CCCCCN)nn3)CC2)n1,active: 5.22 µM,
Cc1cc2oc(=O)cc(CN3CCOCC3)c2cc1C(C)C,"inconclusive [inhibitor, partial curve]",
CC(=O)N(CC(=O)Nc1nn(-c2ccccc2)nc1C(N)=O)Cc1ccccc1,active: 1.04 µM,
CN(C)/C=C/C(=O)/C=C/c1cn(-c2ncc(C(F)(F)F)cc2Cl)c2ccccc12,active: 13.1 µM,
COC(=O)Nc1cc(C(F)(F)F)ccc1N1CCN(c2ccccc2)CC1,"inconclusive [inhibitor, full curve, poor fit]",
O=c1[nH]c(CN2CCN(c3ccccc3)CC2)nc2scc(-c3ccccc3)c12,"inconclusive [inhibitor, partial curve, poor fit]",
COC(=O)C1=C(c2cccc(C#N)c2)C[C@@H]2CC[C@H]1N2C(=O)NCCOc1ccc(OC)cc1,"inconclusive [inhibitor, single point]",
Cc1cc(-c2nnc(-c3cc4ccccc4oc3=O)o2)c(C)n1-c1ccccc1,"inconclusive [inhibitor, partial curve, poor fit]",
